Laboratory results reported in patent publication EP0103381B1, “Substituted anthra(1,9-cd)pyrazol-6(2H)-ones” (WARNER-LAMBERT COMPANY, priority 1982, dated 1984).
Where “and” joins values, the source holds several entries; their conditions need not be identical. Equal entries are not always repeated. The name of at least one read-out is uncertain.

Tested on: lymphocytic leukemia P388
Assay: in vivo lymphocytic leukemia P388 test
Design: species or system mice
Settings: two single doses four days apart
Procedure: The in vivo lymphocytic leukemia P388 test is carried out by the United States National Cancer Institute. The animals used are either male or female CD2F, mice. There are six to seven animals per test group. The tumor transplant is by intraperitoneal injection of dilute ascitic fluid containing cells of lymphocytic leukemia P388. The test compounds are administered intraperitoneally in two single doses with a four-day interval between doses at various dose levels following tumor inoculation. The animals are weighed and survivors are recorded on a regular basis for 30 days. A ratio of survival time for treated (T)/ control (C) animals is calculated. The criterion for efficacy is T/C x 100 > 125%. The positive control compound in this test is 1,4-dihydroxy-5,8-[bis[[2-[(2-hydroxyethyl)amino]-ethyl]amino]-9,10-anthracene- dione given at dosages ranging from 12.0 to 0.075 mg/kg. See Cancer Chemotherapy Reports, Part 3, 3, 1 (1972) for a comprehensive discussion of the protocol.

Compound: CCN(CC)CCn1nc2c3c(c(NCCNCCO)ccc31)C(=O)c1ccccc1-2 [Example 2]
- T/C × 100 (Percent) (P388, Dose 1.56 mg/kg intraperitoneally, listed as H, (CH2)2N(Et)2·2HCl, NH(CH2)2NH(CH2)2OH, 1.56 mg/kg): 146%
- T/C × 100 (Percent) (P388, Dose 3.12 mg/kg intraperitoneally, listed as H, (CH2)2N(Et)2·2HCl, NH(CH2)2NH(CH2)2OH, 3.12 mg/kg): 128% and 142% and 164% and 151%
- T/C × 100 (Percent) (P388, Dose 6.25 mg/kg intraperitoneally, listed as H, (CH2)2N(Et)2·2HCl, NH(CH2)2NH(CH2)2OH, 6.25 mg/kg): 145% and 146% and 161% and 178%
- T/C × 100 (Percent) (P388, Dose 12.5 mg/kg intraperitoneally, listed as H, (CH2)2N(Et)2·2HCl, NH(CH2)2NH(CH2)2OH, 12.5 mg/kg): 161% and 152% and 178%

Compound: O=C1c2c(O)ccc(O)c2-c2nn(CCNCCO)c3ccc(NCCN(CCO)CCO)c1c23 [Example 67, 5-[[2-[Bis(2-hydroxyethyl)amino]ethyl]amino]-7,10-dihydroxy-2-[2-[(2-hydroxyethyl)-amino]ethyl]anthra(1,9-cd]pyrazol-6(2H)-one]
- T/C × 100 (Percent) (P388, Dose 12.5 mg/kg intraperitoneally, listed as 7,10-(OH)2, CH2CH2NHCH2CH2OH ·2.3HCl, NHCH2CH2N(CH2CH2OH)2, 12.5 mg/kg): 166%
- T/C × 100 (Percent) (P388, Dose 25 mg/kg intraperitoneally, listed as 7,10-(OH)2, CH2CH2NHCH2CH2OH ·2.3HCl, NHCH2CH2N(CH2CH2OH)2, 25 mg/kg): 194%
- T/C × 100 (Percent) (P388, Dose 50 mg/kg intraperitoneally, listed as 7,10-(OH)2, CH2CH2NHCH2CH2OH ·2.3HCl, NHCH2CH2N(CH2CH2OH)2, 50 mg/kg): 203% and 169%
- T/C × 100 (Percent) (P388, Dose 100 mg/kg intraperitoneally, listed as 7,10-(OH)2, CH2CH2NHCH2CH2OH ·2.3HCl, NHCH2CH2N(CH2CH2OH)2, 100 mg/kg): 223% and 254%

Compound: CCN(CC)CCn1nc2c3c(c(NCCN)ccc31)C(=O)c1c(O)ccc(O)c1-2 [Example 30, 5-[(2-Aminoethyl)amino]-2-(2-(diethylamino)ethyl]-7,10-dihydroxyanthra[1,9-cd]pyrazol-6(2H)-one]
- T/C × 100 (Percent) (P388, Dose 3.12 mg/kg intraperitoneally, listed as 7,10-(OH)2, (CH2)2N(Et)2·2HCl, NH(CH2)2NH2, 3.12 mg/kg): 160%
- T/C × 100 (Percent) (P388, Dose 6.25 mg/kg intraperitoneally, listed as 7,10-(OH)2, (CH2)2N(Et)2·2HCl, NH(CH2)2NH2, 6.25 mg/kg): 191%
- T/C × 100 (Percent) (P388, Dose 12.5 mg/kg intraperitoneally, listed as 7,10-(OH)2, (CH2)2N(Et)2·2HCl, NH(CH2)2NH2, 12.5 mg/kg): 280% and 189%

Compound: NCCCNc1ccc2c3c(nn2CCCNCCO)-c2c(O)ccc(O)c2C(=O)c13 [Example 53]
- T/C × 100 (Percent) (P388, Dose 50 mg/kg intraperitoneally, listed as 7,10-(OH)2, (CH2)3NHCH2CH2OH ·0.1HCl, NHCH2CH2CH2NH2, 50 mg/kg): 146%
- T/C × 100 (Percent) (P388, Dose 100 mg/kg intraperitoneally, listed as 7,10-(OH)2, (CH2)3NHCH2CH2OH ·0.1HCl, NHCH2CH2CH2NH2, 100 mg/kg): 185% and 155%

Compound: CN(C)CCCn1nc2c3c(c(NCCCN)ccc31)C(=O)c1c(O)ccc(O)c1-2 [Example 47, 5-[(3-Aminopropyl)amino]-2-[3-(dimethylamino)propyl]-7,10-dihydroxyanthra[1,9-cd]pyrazol-6(2H)-one]
- T/C × 100 (Percent) (P388, Dose 6.25 mg/kg intraperitoneally, listed as 7,10-(OH)2, CH2CH2CH2NMe2·2HCl, NHCH2CH2CH2NH2, 6.25 mg/kg): 167% and 173% and 190%
- T/C × 100 (Percent) (P388, Dose 12.5 mg/kg intraperitoneally, listed as 7,10-(OH)2, CH2CH2CH2NMe2·2HCl, NHCH2CH2CH2NH2, 12.5 mg/kg): 180%
- T/C × 100 (Percent) (P388, Dose 25 mg/kg intraperitoneally, listed as 7,10-(OH)2, CH2CH2CH2NMe2·2HCl, NHCH2CH2CH2NH2, 25 mg/kg): 212%

Compound: CN(C)CCn1nc2c3c(c(NCCCN)ccc31)C(=O)c1c(O)ccc(O)c1-2 [Example 34, 5-[(3-Aminopropyl)amino]-2-[2-(dimethylamino)ethyl]-7,10-dihydroxyanthra[1,9-cd]pyrazol-6(2H)-one]
- T/C × 100 (Percent) (P388, Dose 12.5 mg/kg intraperitoneally, listed as 7,10-(OH)2, CH2CH2NMe2·2HCl, NHCH2CH2CH2NH2, 12.5 mg/kg): 208%

Compound: NCCNc1ccc2c3c(nn2CCN)-c2c(O)ccc(O)c2C(=O)c13 [Example 72, 2-(2-Aminoethyl)-5-[(2-aminoethyl)amino]-7,10-dihydroxyanthra[1,9-cd]pyrazol-6(2H)-one]
- T/C × 100 (Percent) (P388, Dose 12.5 mg/kg intraperitoneally, listed as 7,10-(OH)2, CH2CH2NH2·2HCl, NHCH2CH2NH2, 12.5 mg/kg): 144% and 203% and 221%
- T/C × 100 (Percent) (P388, Dose 25 mg/kg intraperitoneally, listed as 7,10-(OH)2, CH2CH2NH2·2HCl, NHCH2CH2NH2, 25 mg/kg): 156% and 218%

Compound: O=C1c2c(O)ccc(O)c2-c2nn(CC(O)CO)c3ccc(NCCNCCO)c1c23 (stereo not drawn) [Example 78, 2-(2,3-Dihydroxypropyl)-7,10-dihydroxy-5-[[2-[(2-hydroxyethyl)amino]ethyl]amino]anthra[1,9-cd]pyrazol-6(2H)-one]
- T/C × 100 (Percent) (P388, Dose 25 mg/kg intraperitoneally, listed as 7,10-(OH)2, CH2CH(OH)CH2OH·HCl, NHCH2CH2NHCH2CH2OH, 25 mg/kg): 166%
- T/C × 100 (Percent) (P388, Dose 100 mg/kg intraperitoneally, listed as 7,10-(OH)2, CH2CH(OH)CH2OH·HCl, NHCH2CH2NHCH2CH2OH, 100 mg/kg): 194%
- T/C × 100 (Percent) (P388, Dose 200 mg/kg intraperitoneally, listed as 7,10-(OH)2, CH2CH(OH)CH2OH·HCl, NHCH2CH2NHCH2CH2OH, 200 mg/kg): 213%
- T/C × 100 (Percent) (P388, Dose 400 mg/kg intraperitoneally, listed as 7,10-(OH)2, CH2CH(OH)CH2OH·HCl, NHCH2CH2NHCH2CH2OH, 400 mg/kg): 281% and 255%

Compound: NCCn1nc2c3c(c(NCCCNCCO)ccc31)C(=O)c1c(O)ccc(O)c1-2 [Example 75, 2-(2-Aminoethyl)-5-[[3-[(2-hydroxyethyl)amino]propyl]amino]-7,10-dihydroxyanthra[1,9-cd]pyrazol-6(2H)-one]
- T/C × 100 (Percent) (P388, Dose 1.56 mg/kg intraperitoneally, listed as 7,10-(OH)2, CH2CH2NH2·2.1HCl, NHCH2CH2CH2NHCH2CH2OH, 1.56 mg/kg): 172%
- T/C × 100 (Percent) (P388, Dose 3.12 mg/kg intraperitoneally, listed as 7,10-(OH)2, CH2CH2NH2·2.1HCl, NHCH2CH2CH2NHCH2CH2OH, 3.12 mg/kg): 184%
- T/C × 100 (Percent) (P388, Dose 6.25 mg/kg intraperitoneally, listed as 7,10-(OH)2, CH2CH2NH2·2.1HCl, NHCH2CH2CH2NHCH2CH2OH, 6.25 mg/kg): 194%

Compound: CCN(CC)CCNc1ccc2c3c(nn2CCNCCO)-c2c(O)ccc(O)c2C(=O)c13 [Example 57, 5-[[2-(Diethylamino)ethyl]amino]-7,10-dihydroxy-2-[2-[(2-hydroxyethyl)amino]ethyl]anthra[1,9-cd]pyrazol-6(2H)-one]
- T/C × 100 (Percent) (P388, Dose 1.56 mg/kg intraperitoneally, listed as 7,10-(OH)2, (CH2)2NH(CH2)2OH·2HCl, NH(CH2)2N(Et)2, 1.56 mg/kg): 135%
- T/C × 100 (Percent) (P388, Dose 3.12 mg/kg intraperitoneally, listed as 7,10-(OH)2, (CH2)2NH(CH2)2OH·2HCl, NH(CH2)2N(Et)2, 3.12 mg/kg): 150%
- T/C × 100 (Percent) (P388, Dose 6.25 mg/kg intraperitoneally, listed as 7,10-(OH)2, (CH2)2NH(CH2)2OH·2HCl, NH(CH2)2N(Et)2, 6.25 mg/kg): 168%
- T/C × 100 (Percent) (P388, Dose 12.5 mg/kg intraperitoneally, listed as 7,10-(OH)2, (CH2)2NH(CH2)2OH·2HCl, NH(CH2)2N(Et)2, 12.5 mg/kg): 190%
- T/C × 100 (Percent) (P388, Dose 25 mg/kg intraperitoneally, listed as 7,10-(OH)2, (CH2)2NH(CH2)2OH·2HCl, NH(CH2)2N(Et)2, 25 mg/kg): 209%

Compound: O=C1c2c(O)ccc(O)c2-c2nn(CCNCCO)c3ccc(NCCNCCO)c1c23 [Example 54, 7,10-Dihydroxy-2-[2-[12-hydroxyethyl)amino]ethyl]-5-[[2-[(2-hydroxyethyl)amino]ethyl]amino]anthra[1,9-cdlpyrazol-6(2H)-one]
- T/C × 100 (Percent) (P388, Dose 1.56 mg/kg intraperitoneally, listed as 7,10-(OH)2, (CH2)2NH(CH2)2OH·2HCl, NH(CH2)2NH(CH2)2OH, 1.56 mg/kg): 168%
- T/C × 100 (Percent) (P388, Dose 12.5 mg/kg intraperitoneally, listed as 7,10-(OH)2, (CH2)2NH(CH2)2OH·2HCl, NH(CH2)2NH(CH2)2OH, 12.5 mg/kg): 153% and 177%
- T/C × 100 (Percent) (P388, Dose 25 mg/kg intraperitoneally, listed as 7,10-(OH)2, (CH2)2NH(CH2)2OH·2HCl, NH(CH2)2NH(CH2)2OH, 25 mg/kg): 168%

Compound: NCCNc1ccc2c3c(nn2CCNCCO)-c2c(O)ccc(O)c2C(=O)c13 [Example 55, 5-[(2-Aminoethyl)amino]-7,10-dihydroxy-2-[2-[(2-hydroxyethyl)amino]ethyl]anthra[1,9-cd]pyrazol-6(2H)-one]
- T/C × 100 (Percent) (P388, Dose 1.56 mg/kg intraperitoneally, listed as 7,10-(OH)2, (CH2)2NH(CH2)2OH·2HCl, NH(CH2)2NH2, 1.56 mg/kg): 187%
- T/C × 100 (Percent) (P388, Dose 3.12 mg/kg intraperitoneally, listed as 7,10-(OH)2, (CH2)2NH(CH2)2OH·2HCl, NH(CH2)2NH2, 3.12 mg/kg): 158% and 196%
